Reference: PubChem BioAssay AID2451 (National Center for Advancing Translational Sciences (NCATS), 2010)
Values joined by “and” are separate entries in the source; they are usually repeats but may differ in a detail not shown here. Equal entries are not always repeated. Among all 290,000 compounds or so, about 2,100 (0.72%) were called active. The shares of active, inactive and inconclusive entries below differ from those in the screen. The call rests on the fitted dose curve; in most records, active means well fitted inhibition curve with a large enough effect; inconclusive means small, poorly fitted or top-dose-only effect, or effect the other way; inactive means flat fitted curve, though single readings scatter. Where the call is inconclusive, the potency comes from a doubtful curve fit.

molecular target: Fructose-bisphosphate aldolase (Giardia intestinalis (strain ATCC 50803 / WB clone C6)) (UniProt A8B2U2); assay: qHTS Assay for Inhibitors of Fructose-1,6-bisphosphate Aldolase from Giardia Lamblia; settings: purified Giardia FBPA; activity, negative = inhibition: at 59.6 µM (top of the series) unless noted; further: nearly all actives have a fitted effect of over 55% in size
Sequence of UniProt A8B2U2 (A8B2U2 whole entry, looked up): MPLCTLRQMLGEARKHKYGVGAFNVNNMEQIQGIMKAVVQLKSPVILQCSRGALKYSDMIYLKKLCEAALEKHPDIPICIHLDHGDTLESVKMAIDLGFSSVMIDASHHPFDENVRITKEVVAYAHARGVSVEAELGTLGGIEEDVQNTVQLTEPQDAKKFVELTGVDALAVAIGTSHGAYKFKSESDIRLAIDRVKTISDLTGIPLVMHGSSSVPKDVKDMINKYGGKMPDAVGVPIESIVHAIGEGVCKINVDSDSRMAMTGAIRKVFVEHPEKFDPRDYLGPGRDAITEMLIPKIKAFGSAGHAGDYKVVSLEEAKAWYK
In short: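 Giardia FBPA (40 nM reagent) was preincubated 10 min at RT with compound (up to 57.5 uM final), then substrate plus GAPDH/TPI/NAD/arsenate coupling system with diaphorase/resazurin was added; resorufin fluorescence (525/598 nm) was read after 20 min.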
On the % scale 0 is the no-effect control and ±100 the full control effect; potency means the concentration at half of the fitted maximal effect; tags describe the fitted curve by direction and shape.

**Q.** For `COC(=O)CN1C(=O)COc2ccc(S(=O)(=O)N3CCCCCC3)cc21`, which Potency is on record?
**A.** The Potency was “inactive”.

**Q.** How did the Potency turn out when `CCCCC(=O)NC(=S)NNS(=O)(=O)c1ccccc1` was run?
**A.** The Potency was inconclusive: 15.8 µM [activator, single point].

**Q.** How did the Potency turn out when `O=C(Nc1ccc(Oc2ccccc2)cc1)C1CCCN(c2ncccn2)C1` (configuration not stated) was run?
**A.** The Potency was “inactive”.

**Q.** Which Potency does the source give for `Cc1cnn(C(=S)NCC2CCCO2)c1` (configuration not stated) here?
**A.** The Potency was “inactive”.

**Q.** For `COc1ccc(Nc2ncnc3sc(C)cc23)cc1`, which Potency is on record?
**A.** The Potency was inconclusive: 39.8 µM [inhibitor, single point].

**Q.** `CNC(=S)N1N=C(c2ccc(Br)cc2)CC1c1ccc(OC)cc1` (configuration not stated) was tested. Which Potency did it give?
**A.** The Potency was inconclusive: 8.89 µM [inhibitor, partial curve].

**Q.** With `COc1cc(O)c(C(CCN2CCCCC2)c2ccc3c(c2)OCO3)c(OC)c1` (configuration not stated) as the compound, how does the Potency read?
**A.** The Potency was inconclusive: 12.6 µM [inhibitor, partial curve] and inconclusive: 9.98 µM [inhibitor, partial curve].

**Q.** How did the Potency turn out when `COc1cc(/C=N/Nc2nc(=O)[nH]nc2C)ccc1O` was run?
**A.** Its Potency is inconclusive: 17.7 µM [inhibitor, partial curve].

**Q.** How did the Potency turn out when `C[n+]1cccc2ccc3c(c21)OC(N)=C(C#N)C3c1ccccc1` (configuration not stated) was run?
**A.** Its Potency is inconclusive: 12.6 µM [inhibitor, partial curve].

**Q.** `O=C(Nc1ccccc1F)Oc1cccc(OC(=O)Nc2ccccc2F)c1` was tested. Which Potency did it give?
**A.** The Potency was “inactive”.

**Q.** Which Potency does the source give for `S=c1[nH]nc(COc2ccc(Cl)cc2Cl)n1-c1ccccc1` here?
**A.** Its Potency is inconclusive: 14.1 µM [activator, partial curve].

**Q.** For `Cc1ccc2c(c1)sc1nc(=O)n(-c3ccccc3)c(=O)n12`, which Potency is on record?
**A.** Its Potency is “inactive”.

**Q.** With `Cc1ccc(CN2CCN(CCCn3cccn3)CC2CCO)cc1` (configuration not stated) as the compound, how does the Potency read?
**A.** Its Potency is “inactive”.

**Q.** With `O=C(Nc1ccc(F)cc1)c1cccc(C(=O)Nc2ccc(F)cc2)c1` as the compound, how does the Potency read?
**A.** The Potency was “inactive”.

**Q.** With `CCC(=O)N1CCc2cc(Br)cc(S(=O)(=O)CCC(=O)NCCOC)c21` as the compound, how does the Potency read?
**A.** The Potency was “inactive”.

**Q.** With `CN(CC(=O)Nc1cccc(F)c1)CC(=O)Nc1ccccc1Oc1ccccc1` as the compound, how does the Potency read?
**A.** Its Potency is inconclusive: 17.8 µM [inhibitor, partial curve].

**Q.** For `Cc1cc(=O)[nH]c(SCC(=O)N2CCCCC2)n1`, which Potency is on record?
**A.** Its Potency is inconclusive: 25.1 µM [inhibitor, single point].

**Q.** Which Potency does the source give for `COc1ccc(-n2c(C)cc(/C=C3/SC(=S)N(C)C3=O)c2C)cc1` here?
**A.** The Potency was “inactive”.

**Q.** For `COC(=O)c1c(NC(=O)Cc2ccccc2)sc2c1CCN(C(C)C)C2`, which Potency is on record?
**A.** Its Potency is active: 11.2 µM.

**Q.** `CCO/N=C/C1=C(O)C(C(=O)OC)C(C)(C)CC1=O` (configuration not stated) was tested. Which Potency did it give?
**A.** The Potency was inconclusive: 12.6 µM [inhibitor, partial curve].

**Q.** For `CCc1nnc(NC(=O)CSc2ccc(-c3ccco3)nn2)s1`, which Potency is on record?
**A.** Its Potency is inconclusive: 19.9 µM [inhibitor, single point].

**Q.** With `NC(=S)NNC(=O)COc1ccccc1O` as the compound, how does the Potency read?
**A.** Its Potency is inconclusive: 44.6 µM [inhibitor, partial curve].

**Q.** With `O=C1c2cccc(OCc3ccc(F)cc3)c2CCN1Cc1ccccc1` as the compound, how does the Potency read?
**A.** The Potency was “inactive”.

**Q.** With `CCSc1nnc(NC(=O)c2ccc(Br)s2)s1` as the compound, how does the Potency read?
**A.** The Potency was inconclusive: 15.8 µM [inhibitor, partial curve].

**Q.** With `O=C(c1ccncc1)N1CCC2(CC1)CCN(c1ccccc1)CC2` as the compound, how does the Potency read?
**A.** Its Potency is “inactive”.

**Q.** `O=C(O)c1cc(NC(=O)C2CCCO2)cc(C(=O)O)c1` (configuration not stated) was tested. Which Potency did it give?
**A.** Its Potency is “inactive”.

**Q.** With `CCCCCCC1C(C#N)=C(N)OC2=C1C(=O)CCC2` (configuration not stated) as the compound, how does the Potency read?
**A.** The Potency was inconclusive: 5.61 µM [activator, single point].

**Q.** For `CCCc1cc(=O)[nH]c(SCC(=O)Nc2cc(C)on2)n1`, which Potency is on record?
**A.** Its Potency is “inactive”.

**Q.** `COc1ccccc1C(=O)N1CCN(Cc2cccnc2)CC1` was tested. Which Potency did it give?
**A.** The Potency was inconclusive: 28.2 µM [inhibitor, single point].

**Q.** With `Cc1ccc(-n2c(CCc3ccccc3)n[nH]c2=S)cc1C` as the compound, how does the Potency read?
**A.** Its Potency is “inactive”.

**Q.** For `O=[N+]([O-])c1ccc(/C=N/n2cn[nH]c2=S)cc1`, which Potency is on record?
**A.** Its Potency is inconclusive: 2.51 µM [inhibitor, full curve].

**Q.** How did the Potency turn out when `CC(C)C(C(=O)NCC1CCCO1)N(CC1CCCO1)C(=O)CNS(=O)(=O)c1ccccc1` (configuration not stated) was run?
**A.** The Potency was “inactive”.

**Q.** For `CCOC(=O)CC1(NC(=O)C2CCC(=O)N(CCc3ccc(OC)cc3)C2)CCCCC1` (configuration not stated), which Potency is on record?
**A.** Its Potency is “inactive”.

**Q.** Which Potency does the source give for `COCCCNCC(=O)c1c(N)n(Cc2ccccc2)c(=O)n(C)c1=O` here?
**A.** The Potency was inconclusive: 22.3 µM [inhibitor, partial curve].

**Q.** Which Potency does the source give for `Cn1c(-c2ccc3ccccc3n2)nc2cnccc21` here?
**A.** The Potency was “inactive”.

**Q.** Which Potency does the source give for `O=C(c1ccco1)N1CCN(Cc2cccc3ccccc23)CC1` here?
**A.** The Potency was active: 15.8 µM.

**Q.** With `N/C(=N\OC(=O)c1cccc(Cl)c1)c1cccnc1` as the compound, how does the Potency read?
**A.** Its Potency is “inactive”.

**Q.** Which Potency does the source give for `CC(=O)OC1CCC2(C)C(=CC=C3C2CCC2(C)C3CCC2C(C)/C=C/C(C)C(C)C)C1(C)C` (configuration not stated) here?
**A.** The Potency was “inactive”.

**Q.** With `CCCNC(=O)N1CCN(c2nc(C(C)C)c3c(c2C#N)CC(C)(C)OC3)CC1` as the compound, how does the Potency read?
**A.** The Potency was “inactive”.

**Q.** How did the activity, negative = inhibition turn out when `Cc1ccc(-c2nnn(CC(=O)N(CC(=O)NC3CCCC3)c3ccccc3F)n2)o1` was run?
**A.** The activity, negative = inhibition was inconclusive: 8.92% [activator].

**Q.** With `CCn1c2ccccc2c2cc(NC(=O)COC(=O)c3ccccc3O)ccc21` as the compound, how does the Potency read?
**A.** The Potency was “inactive”.

**Q.** How did the Potency turn out when `Cc1[nH]n(C(N)=S)c(=O)c1N=Nc1ccc(Cl)cc1Cl` was run?
**A.** The Potency was inconclusive: 22.4 µM [activator, partial curve].

**Q.** `O=C(CN1C(=O)NC2(CCCC2)C1=O)Nc1ccc(C(F)(F)F)cc1` was tested. Which Potency did it give?
**A.** The Potency was “inactive”.

**Q.** Which Potency does the source give for `C=CCOc1cccc(CNCc2ccncc2)c1` here?
**A.** The Potency was inconclusive: 28.2 µM [inhibitor, partial curve].

**Q.** How did the Potency turn out when `C=CCc1cc(C)ccc1OCC(O)CN1CCN(c2ccccc2)CC1` (configuration not stated) was run?
**A.** Its Potency is inconclusive: 19.9 µM [inhibitor, partial curve].

**Q.** For `COC(=O)c1ccc(S(=O)(=O)N(C2CCCCC2)C2CCCCC2)n1C`, which Potency is on record?
**A.** Its Potency is “inactive”.

**Q.** `CCCCNC(=O)CCC(=O)Nc1ccc2nc(N3CCC(C)CC3)cc(C)c2c1` was tested. Which Potency did it give?
**A.** The Potency was “inactive”.

**Q.** With `CCn1c(C)nc2cc(C(=O)N/N=C/c3ccc(O)c(O)c3O)ccc21` as the compound, how does the Potency read?
**A.** The Potency was active: 12.6 µM.

**Q.** `O=C(N/N=C/c1ccncc1)c1ccccn1` was tested. Which Potency did it give?
**A.** The Potency was inconclusive: 17.8 µM [inhibitor, partial curve].

**Q.** With `CCOC(=O)c1sc(NC(=O)CN2C(=O)NC3(CCCCCCC3)C2=O)c(C(=O)OCC)c1C` as the compound, how does the Potency read?
**A.** The Potency was “inactive”.

**Q.** With `COc1cc(Br)c(C(=O)c2nccc3cc(OC)c(OC)cc23)cc1OC` as the compound, how does the Potency read?
**A.** The Potency was inconclusive: 0.631 µM [inhibitor, full curve].

**Q.** With `Clc1cccc(Cl)c1OCCCCN1CCCCC1` as the compound, how does the Potency read?
**A.** Its Potency is inconclusive: 25.1 µM [inhibitor, partial curve].
